# According to a collection of fitness landscapes (doi:10.1016/j.celrep.2020.107928):
# Over roughly 81,000 sequences, “one-hybrid fitness for binding NBS DNA” has its median near -0.1; the highest 2% begin near 0.36. The list shows a part of the results.
# B1: Caulobacter ParB omega fusion; a variant is named by its letters at X, in order, B8GW30 (parent)
# chain: MESVVVGEPGMSEGRRGLGRGLSALLGEVDAAPAQAPGEQLGGSREAPIEILQRNPDQPRRTFREEDLEDLSNSIREKGVLQPILVRPSPDTAGEYQIVAGERAWRAAQRAGLKTVPIMVRELDDLAVLEIGIIENVQRADLNVLEEALSYKVLMEKFERTQENIAQTIGKSXSHVANXMRLLXLPDEVQSYLVSGELTAXHARAIAAAADPVALAKQIIEGGLSVRETEALARKAPNLSAGKSKGGRPPRVKDTDTQALESDLSSVLGLDVSIDHRGSTGTLTITYATLEQLDDLCNRLTRGI
# Variants of: B1
# Assay: one-hybrid fitness for binding NBS DNA (the Noc-binding site; scaled: cognate 1, non-cognate 0); higher = stronger binding
# Conditions: with NBS DNA site
# Method in brief: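 Caulobacter ParB libraries with four specificity codons randomised were screened by bacterial one-hybrid selection in the E. coli USO strain, using a HIS3 reporter whose site lies 19 bp from the promoter. Selection ran for 48 hours at 37°C on M9 lacking histidine, with 0.1 mM IPTG and 5 mM 3-AT. Plasmids were Illumina-sequenced before and after selection, three replicate libraries were pooled, and variants with under 10 reads were dropped. Fitness is the log change in each variant's read ratio to wild type, rescaled against the cognate and non-cognate sites.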
row,Variant,one-hybrid fitness for binding NBS DNA
1,HNQT,≤ 0.2
2,QEFR,≤ 0.2
3,FRNS,≤ 0.2
4,QVAP,≤ 0.2
5,KHQH,≤ 0.2
6,QILF,≤ 0.2
7,IPTK,≤ 0.2
8,GHLM,≤ 0.2
9,QKFT,0.366
10,NACG,≤ 0.2
11,QNMN,≤ 0.2
12,TPGN,≤ 0.2
13,SRPE,≤ 0.2
14,HPKC,≤ 0.2
15,NAHG,≤ 0.2
16,DEYM,≤ 0.2
17,TTFT,≤ 0.2
18,AWVD,≤ 0.2
19,SNNC,≤ 0.2
20,SSSD,≤ 0.2
21,MVSR,0.258
22,RKMF,≤ 0.2
23,AWMG,≤ 0.2
24,TKGA,≤ 0.2

row,Variant,one-hybrid fitness for binding NBS DNA
1,DQNR,≤ 0.2
2,STQR,≤ 0.2
3,RWTE,≤ 0.2
4,QMMV,≤ 0.2
5,WLRA,≤ 0.2
6,RMHL,≤ 0.2
7,QMQD,≤ 0.2
8,KITG,≤ 0.2
9,NTHN,≤ 0.2
10,FCST,≤ 0.2
11,MVCP,≤ 0.2
12,MAQG,≤ 0.2
13,TEES,≤ 0.2
14,GKSV,≤ 0.2
15,QDEW,≤ 0.2
16,RAWP,≤ 0.2
17,KFDS,≤ 0.2
18,RYHP,≤ 0.2
19,NDRF,≤ 0.2
20,HRNM,≤ 0.2
21,VDHC,≤ 0.2
22,QMGL,≤ 0.2
23,NSHG,≤ 0.2
24,WYST,≤ 0.2

row,Variant,one-hybrid fitness for binding NBS DNA
1,MEKC,≤ 0.2
2,DHLT,≤ 0.2
3,YFLG,≤ 0.2
4,GNRR,≤ 0.2
5,GPSI,≤ 0.2
6,KKRH,≤ 0.2
7,SMVT,≤ 0.2
8,TRAL,≤ 0.2
9,QAII,≤ 0.2
10,LPLA,≤ 0.2
11,MKKN,≤ 0.2
12,RYTN,≤ 0.2
13,IRYL,≤ 0.2
14,MVAS,≤ 0.2
15,HHLN,≤ 0.2
16,PNDG,≤ 0.2
17,WITN,≤ 0.2
18,SWHW,≤ 0.2
19,IRPC,≤ 0.2
20,MKVG,≤ 0.2
21,TTVY,≤ 0.2
22,TDAL,≤ 0.2
23,WRRH,≤ 0.2
24,VHTC,≤ 0.2

row,Variant,one-hybrid fitness for binding NBS DNA
1,VQCR,≤ 0.2
2,MTIR,≤ 0.2
3,NLKV,≤ 0.2
4,PKDH,≤ 0.2
5,QFPF,≤ 0.2
6,RAIL,≤ 0.2
7,PKST,≤ 0.2
8,SCLS,≤ 0.2
9,SLVE,≤ 0.2
10,QHVM,≤ 0.2
11,FLLS,≤ 0.2
12,RCNQ,≤ 0.2
13,MDHW,≤ 0.2
14,KIDY,≤ 0.2
15,CVMS,≤ 0.2
16,EKNT,≤ 0.2
17,QEPA,≤ 0.2
18,CKMF,≤ 0.2
19,DGKT,≤ 0.2
20,QDHK,≤ 0.2
21,ENLT,≤ 0.2
22,RSVY,≤ 0.2
23,TVKW,≤ 0.2
24,APCF,≤ 0.2

row,Variant,one-hybrid fitness for binding NBS DNA
1,MYSC,≤ 0.2
2,NSNW,≤ 0.2
3,IMTT,≤ 0.2
4,MTPD,≤ 0.2
5,KIHS,≤ 0.2
6,RKYS,0.562
7,FTPG,≤ 0.2
8,LDKN,≤ 0.2
9,EPPG,≤ 0.2
10,KHVN,≤ 0.2
11,FYAE,≤ 0.2
12,FVCV,≤ 0.2
13,KPWC,≤ 0.2
14,PRQF,≤ 0.2
15,KSST,≤ 0.2
16,LDHE,≤ 0.2
17,YRRI,≤ 0.2
18,SAMY,≤ 0.2
19,YVIT,≤ 0.2
20,SWRK,≤ 0.2
21,QPAH,≤ 0.2
22,DSAA,≤ 0.2
23,FRDT,≤ 0.2
24,QVSL,≤ 0.2

row,Variant,one-hybrid fitness for binding NBS DNA
1,GRYA,≤ 0.2
2,SGSN,≤ 0.2
3,FASG,≤ 0.2
4,RSPA,≤ 0.2
5,FRYR,≤ 0.2
6,PAAQ,≤ 0.2
7,RFWS,≤ 0.2
8,VRWR,≤ 0.2
9,RMAI,≤ 0.2
10,ATFP,≤ 0.2
11,ASTL,≤ 0.2
12,QTYL,≤ 0.2
13,AIEW,≤ 0.2
14,KTYG,≤ 0.2
15,GDYR,≤ 0.2
16,PKAW,≤ 0.2
17,RSSY,≤ 0.2
18,GNVV,≤ 0.2
19,ARTY,≤ 0.2
20,PPNW,≤ 0.2
21,NIHG,≤ 0.2
22,RMSF,≤ 0.2
23,LNDV,≤ 0.2
24,LVAC,≤ 0.2

row,Variant,one-hybrid fitness for binding NBS DNA
1,FTNL,≤ 0.2
2,CEPG,≤ 0.2
3,TDAC,≤ 0.2
4,ADCE,≤ 0.2
5,LVSN,≤ 0.2
6,SWES,≤ 0.2
7,SGNR,≤ 0.2
8,NYSI,≤ 0.2
9,RPFL,≤ 0.2
10,AKIF,≤ 0.2
11,CNRY,≤ 0.2
12,FVRS,≤ 0.2
13,SEYS,≤ 0.2
14,QYHA,0.234
15,GWTT,≤ 0.2
16,VSDR,≤ 0.2
17,PCKN,≤ 0.2
18,WWNS,≤ 0.2
19,AVNY,≤ 0.2
20,LATG,≤ 0.2
21,EPKC,≤ 0.2
22,INTP,≤ 0.2
23,HLRI,≤ 0.2
24,TGSY,≤ 0.2

row,Variant,one-hybrid fitness for binding NBS DNA
1,FHAT,≤ 0.2
2,PLIV,≤ 0.2
3,MHYG,≤ 0.2
4,PEVC,≤ 0.2
5,QKFH,≤ 0.2
6,GMPP,≤ 0.2
7,YRCY,≤ 0.2
8,LPYG,≤ 0.2
9,RTHQ,≤ 0.2
10,HFTS,≤ 0.2
11,DRLR,≤ 0.2
12,NWYY,≤ 0.2
13,QSMC,≤ 0.2
14,SDVP,≤ 0.2
15,VMAI,≤ 0.2
16,RCAW,0.431
17,RSAM,≤ 0.2
18,KMRR,0.398
19,EMKG,≤ 0.2
20,APSL,≤ 0.2
21,PTKN,≤ 0.2
22,AYCY,≤ 0.2
23,ATAL,≤ 0.2
24,PVHH,≤ 0.2

row,Variant,one-hybrid fitness for binding NBS DNA
1,QAAP,≤ 0.2
2,FPQW,≤ 0.2
3,HAHT,≤ 0.2
4,MVQG,≤ 0.2
5,QKGH,0.228
6,YRTG,≤ 0.2
7,DACA,≤ 0.2
8,SCFF,≤ 0.2
9,TDHI,≤ 0.2
10,CMGA,≤ 0.2
11,PVFR,≤ 0.2
12,LKVE,≤ 0.2
13,ISVC,≤ 0.2
14,TTAM,≤ 0.2
15,PDLH,≤ 0.2
16,PHSW,≤ 0.2
17,HSPI,≤ 0.2
18,MATW,≤ 0.2
19,AKNV,≤ 0.2
20,HTYP,≤ 0.2
21,SNVR,≤ 0.2
22,SRPY,≤ 0.2
23,TFSC,≤ 0.2
24,PWKA,≤ 0.2

row,Variant,one-hybrid fitness for binding NBS DNA
1,RYLR,0.354
2,RLCL,≤ 0.2
3,HRKR,0.395
4,QSEP,≤ 0.2
5,LYTT,≤ 0.2
6,LWWE,≤ 0.2
7,KEWR,≤ 0.2
8,KDHS,≤ 0.2
9,DITW,≤ 0.2
10,AMIS,≤ 0.2
11,LGKF,≤ 0.2
12,PPKK,≤ 0.2
13,ERHG,≤ 0.2
14,RDVM,≤ 0.2
15,MLHE,≤ 0.2
16,HLPC,≤ 0.2
17,CMVC,≤ 0.2
18,RHNR,0.539
19,VTNY,≤ 0.2
20,IKNR,≤ 0.2
21,KTPC,≤ 0.2
22,MHDG,≤ 0.2
23,LQSY,≤ 0.2
24,KVRG,≤ 0.2

row,Variant,one-hybrid fitness for binding NBS DNA
1,MEHS,≤ 0.2
2,NSCH,≤ 0.2
3,YRWN,≤ 0.2
4,AYCC,≤ 0.2
5,ATNM,≤ 0.2
6,AVIY,≤ 0.2
7,RHNL,≤ 0.2
8,RWGL,≤ 0.2
9,PHTL,≤ 0.2
10,ALQH,≤ 0.2
11,FKSN,≤ 0.2
12,RLAN,≤ 0.2
13,RAMA,≤ 0.2
14,HTEC,≤ 0.2
15,YMGR,≤ 0.2
16,QNLW,≤ 0.2
17,IETK,≤ 0.2
18,QPHD,≤ 0.2
19,ETKQ,≤ 0.2
20,NKWG,≤ 0.2
21,RLNN,≤ 0.2
22,HDFC,≤ 0.2
23,PDHR,≤ 0.2
24,AMRG,≤ 0.2

row,Variant,one-hybrid fitness for binding NBS DNA
1,SWTN,≤ 0.2
2,SKNG,≤ 0.2
3,HTAD,≤ 0.2
4,RGFP,≤ 0.2
5,AKSQ,≤ 0.2
6,YIRY,≤ 0.2
7,WGHH,≤ 0.2
8,GHKR,≤ 0.2
9,FPNG,≤ 0.2
10,RCAV,≤ 0.2
11,AVNL,≤ 0.2
12,TLCG,≤ 0.2
13,HRLW,≤ 0.2
14,WTTR,≤ 0.2
15,MQRG,≤ 0.2
16,RRVK,≤ 0.2
17,ACYL,≤ 0.2
18,KFFG,≤ 0.2
19,AVID,≤ 0.2
20,INER,≤ 0.2
21,FWEL,≤ 0.2
22,QTFK,≤ 0.2
23,AWDL,≤ 0.2
24,IQIG,≤ 0.2

row,Variant,one-hybrid fitness for binding NBS DNA
1,QRVE,≤ 0.2
2,SMCS,≤ 0.2
3,LNLR,≤ 0.2
4,YILC,≤ 0.2
5,FTYW,≤ 0.2
6,AVRK,≤ 0.2
7,TYHS,≤ 0.2
8,GPAY,≤ 0.2
9,LRYC,≤ 0.2
10,MRIR,≤ 0.2
11,NLTA,≤ 0.2
12,PSYY,≤ 0.2
13,SDNS,≤ 0.2
14,LIPK,≤ 0.2
15,FVVS,≤ 0.2
16,PYWG,≤ 0.2
17,QLQN,≤ 0.2
18,RSLI,≤ 0.2
